Tests used:
rhu CD28 = biological target: T1, rhu CD28 (human, UniProt P10747 19-152, limits assumed); assay: SPR, rhu CD28 analyte, 1:1 model
T1 construct: also called CD28 (SPR analyte)

rhu PD-L1 [1] = biological target: T2, rhu PD-L1 (human, UniProt Q9NZQ7 partial chain, limits assumed); assay: SPR, rhu PD-L1 analyte, 1:1 model
T2 construct: also called PD-L1 (SPR analyte)

rhu PD-L1 [2] = biological target: T2, rhu PD-L1; assay: SPR (Biacore), captured CD80-Fc, PD-L1 analyte
human PD-L1 = biological target: T3, human PD-L1 (human, UniProt Q9NZQ7); assay: flow cytometry, SCC152 cells transduced with human PD-L1, anti-human Fc detection
human PD-L1, sequence (Q9NZQ7 19-290): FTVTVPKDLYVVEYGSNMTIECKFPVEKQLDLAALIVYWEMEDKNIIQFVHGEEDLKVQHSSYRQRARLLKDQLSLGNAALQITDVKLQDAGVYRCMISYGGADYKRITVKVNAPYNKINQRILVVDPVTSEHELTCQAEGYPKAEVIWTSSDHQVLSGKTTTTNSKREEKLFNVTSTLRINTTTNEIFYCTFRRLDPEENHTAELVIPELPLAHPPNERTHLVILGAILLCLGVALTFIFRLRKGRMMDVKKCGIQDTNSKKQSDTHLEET
T3 construct: whole, on cells
Method: (§1) Binding affinity to CD28 was determined using primary human T cells which endogenously express CD28. Binding to PD-L1 was determined using SCC152 cells transduced with human PD-L1. Binding to CTLA-4 was measured using Chinese hamster ovary (CHO) cells stably transduced to express human CTLA-4.
(§2) For staining and analysis by flow cytometry, 75,000 human T cells, SCC152/PD-L1 cells, or CHO/CTLA-4 cells were plated in 96-well round-bottom plates. Cells were spun down and resuspended in staining buffer (PBS (phosphate buffered saline), 1% BSA (bovine serum albumin), 1 mM EDTA, and 0.1% sodium azide) for 20 minutes to block non-specific binding. Afterwards, cells were centrifuged, stain buffer aspirated, and then resuspended in 50 μL of a 1:5 serial dilution of each CD80-Fc candidate variant starting at 100 nM ending at 0.8 nM. Primary staining was performed on ice for 60 minutes, before washing cells in […] staining buffer three times. PE-conjugated anti-human Fc (Jackson ImmunoResearch, USA) was diluted 1:250 in 50 μL staining buffer and added to cells and incubated another 30 minutes at 4° C. Cells were washed two times in 150 μL stain buffer and then fixed in 2% formaldehyde/PBS for 5 minutes at room temperature. Samples were analyzed CytoFLEX LX flow cytometer (Beckman Coulter, USA). Median Fluorescence Intensity (MFI) was calculated for each cell type using the CytExpert software from Beckman Coulter.
(§3) Binding assays were carried out to assess the specificity and affinity of multivalent proteins to cell-expressed CTLA-4, CD28, and PD-L1 counter structures.

human CD28 on cells [3] = biological target: T4, human CD28 on cells (human, UniProt P10747 19-220); assay: cell-based or functional assay
[4] = biological target: T5, human CTLA-4 on CHO cells (human, UniProt P16410 36-223); assay: flow cytometry, CHO/CTLA-4 cells
T5 construct: whole, on cells; also called CHO/CTLA-4
T5 sequence (P16410 36-223): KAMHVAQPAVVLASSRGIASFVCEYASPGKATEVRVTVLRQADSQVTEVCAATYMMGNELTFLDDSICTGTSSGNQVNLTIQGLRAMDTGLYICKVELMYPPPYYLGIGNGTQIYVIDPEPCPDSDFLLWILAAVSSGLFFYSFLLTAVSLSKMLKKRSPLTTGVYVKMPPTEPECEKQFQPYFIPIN
Method: as §1, §2, §3

human CD28 on cells [5] = biological target: T4, human CD28 on cells; assay: flow cytometry, primary human T cells
Method: as §1, §2, §3

T2 sequence (Q9NZQ7 19-238 limits assumed): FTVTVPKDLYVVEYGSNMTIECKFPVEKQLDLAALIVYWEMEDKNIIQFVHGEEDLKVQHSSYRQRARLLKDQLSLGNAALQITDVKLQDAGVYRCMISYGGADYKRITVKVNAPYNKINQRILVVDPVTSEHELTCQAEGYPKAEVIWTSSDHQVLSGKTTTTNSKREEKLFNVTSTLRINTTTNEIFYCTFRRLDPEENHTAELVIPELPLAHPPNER

Binder	Kd (rhu CD28)	koff (rhu CD28)	kon (rhu CD28)	Kd (rhu PD-L1 [1])	koff (rhu PD-L1 [1])	kon (rhu PD-L1 [1])	Complex half-life (rhu PD-L1 [2])	koff (rhu PD-L1 [2])	Fold Increase over WT at 50 nM (human CD28 on cells [3])	Rel. Luminescence Units (RLU) at 2 nM, K562/OKT3/PD-L1 + Jurkat/IL-2 reporter (human CD28 on cells [3])	Rel. Luminescence Units (RLU) at 10 nM, K562/OKT3/PD-L1 + Jurkat/IL-2 reporter (human CD28 on cells [3])	Rel. Luminescence Units (RLU) at 50 nM, K562/OKT3/PD-L1 + Jurkat/IL-2 reporter (human CD28 on cells [3])	Rel. Luminescence Units (RLU) at 250 nM, K562/OKT3/PD-L1 + Jurkat/IL-2 reporter (human CD28 on cells [3])	Anti-Human Fc (MFI) at 0.8 nM [4]	Anti-Human Fc (MFI) at 4 nM [4]	Anti-Human Fc (MFI) at 20 nM [4]	fold change vs WT CD80 @20 nM [4]	Anti-Human Fc (MFI) at 0.8 nM (human CD28 on cells [5])	Anti-Human Fc (MFI) at 4 nM (human CD28 on cells [5])	Anti-Human Fc (MFI) at 20 nM (human CD28 on cells [5])	further results
CD80_185-Fc (Fc fusion, Variant CD80 IgV-GSGGGGS-human IgG4 Fc (S228P); also called V11Y, T28Y, M47L) VIHVTKEVKEYATLSCGHNVSVEELAQYRIYWQKEKKMVLTMMSGDLNIWPEYKNRTIFDITNNLSIVILALRPSDEGTYECVVLKYEKDAFKREHLAEVTLSVKADGSGGGGS[omitted - human IgG4 Fc with S228P (EU numbers)]	31.7 nM	0.00205 s⁻¹	64400 M⁻¹ s⁻¹	73.5 nM	0.00355 s⁻¹	48400 M⁻¹ s⁻¹	50 s	0.014 s⁻¹													
CD80_234-Fc (Fc fusion, Variant CD80 IgV-GSGGGGS-human IgG4 Fc (S228P); also called V11Y, T28Y, M47L, V68L) VIHVTKEVKEYATLSCGHNVSVEELAQYRIYWQKEKKMVLTMMSGDLNIWPEYKNRTIFDITNNLSILILALRPSDEGTYECVVLKYEKDAFKREHLAEVTLSVKADGSGGGGS[omitted - human IgG4 Fc with S228P (EU numbers)]	63.6 nM	0.00394 s⁻¹	62000 M⁻¹ s⁻¹	138 nM	0.0028 s⁻¹	20300 M⁻¹ s⁻¹	80.4 s	0.009 s⁻¹													
CD80_236-Fc (Fc fusion, Variant CD80 IgV-GSGGGGS-human IgG4 Fc (S228P); also called V11Y, T28Y, M47L, A71G) VIHVTKEVKEYATLSCGHNVSVEELAQYRIYWQKEKKMVLTMMSGDLNIWPEYKNRTIFDITNNLSIVILGLRPSDEGTYECVVLKYEKDAFKREHLAEVTLSVKADGSGGGGS[omitted - human IgG4 Fc with S228P (EU numbers)]	4.42 nM	0.00032 s⁻¹	72400 M⁻¹ s⁻¹	35.1 nM	0.00581 s⁻¹	166000 M⁻¹ s⁻¹															
CD80_233-Fc (Fc fusion, Variant CD80 IgV-GSGGGGS-human IgG4 Fc (S228P); also called V11Y, T28Y, M47L, V68M) VIHVTKEVKEYATLSCGHNVSVEELAQYRIYWQKEKKMVLTMMSGDLNIWPEYKNRTIFDITNNLSIMILALRPSDEGTYECVVLKYEKDAFKREHLAEVTLSVKADGSGGGGS[omitted - human IgG4 Fc with S228P (EU numbers)]	87.4 nM	0.00601 s⁻¹	68800 M⁻¹ s⁻¹	265 nM	0.0038 s⁻¹	14300 M⁻¹ s⁻¹	42.2 s	0.016 s⁻¹													
CD80_180-Fc (Fc fusion, Variant CD80 IgV-GSGGGGS-human IgG4 Fc (S228P); also called E10G, V11W, T28Y, M47L) VIHVTKEVKGWATLSCGHNVSVEELAQYRIYWQKEKKMVLTMMSGDLNIWPEYKNRTIFDITNNLSIVILALRPSDEGTYECVVLKYEKDAFKREHLAEVTLSVKADGSGGGGS[omitted - human IgG4 Fc with S228P (EU numbers)]	96 nM	0.00616 s⁻¹	64100 M⁻¹ s⁻¹	680 nM	0.00563 s⁻¹	8200 M⁻¹ s⁻¹	50.6 s														
CD80-Fc-CD80_336 (CD80_180 E10G/V11W/T28Y/M47L) (Fc fusion, tetravalent after Fc dimerization) VIHVTKEVKGWATLSCGHNVSVEELAQYRIYWQKEKKMVLTMMSGDLNIWPEYKNRTIFDITNNLSIVILALRPSDEGTYECVVLKYEKDAFKREHLAEVTLSVKADGSGGGGS[omitted - human IgG4 Fc with S228P (EU numbers)]GGGGSGGGGSGGGGSVIHVTKEVKGWATLSCGYNVSVEELAQYRIYWQKEKKMVLTMMSGDLNIWPEYKNRTIFDITNNLSIVILALRPSDEGTYECVVLKYEKDAFKREHLAEVTLSVKAD																					Anti-Human Fc (MFI) at 0.8 nM (human PD-L1): 3800 MFI; Anti-Human Fc (MFI) at 4 nM (human PD-L1): 5750 MFI; Anti-Human Fc (MFI) at 20 nM (human PD-L1): 7000 MFI; Anti-Human Fc (MFI) at 100 nM (human PD-L1): 8450 MFI
CD80-CD80-Fc_340 (Fc fusion, Tetravalent after Fc dimerization; also called tandem CD80_185/CD80_416) VIHVTKEVKEYATLSCGHNVSVEELAQYRIYWQKEKKMVLTMMSGDLNIWPEYKNRTIFDITNNLSIVILALRPSDEGTYECVVLKYEKDAFKREHLAEVTLSVKADGGGGSGGGGSGGGGSVIHVTKEVKEYATLSCGYNVSVEELAQYRIYWQKEKKMVLTMMSGDLNIWPEYKNRTIFDITNNLSIVILALRPSDEGTYECVVLKYEKDAFKREHLAEVTLSVKADGSGGGGS[omitted - human IgG4 Fc with S228P (EU numbers)]									5.6 fold	12900 RLU	13200 RLU	13700 RLU	12900 RLU	236000 MFI	318000 MFI	318000 MFI	0.38 fold	1660 MFI	3080 MFI	3600 MFI	Anti-Human Fc (MFI) at 100 nM [4]: 353000 MFI; Anti-Human Fc (MFI) at 100 nM (human CD28 on cells [5]): 3640 MFI; fold change vs WT CD80 @20 nM (human CD28 on cells [5]): 20 fold
CD80-CD80-Fc_337 (Fc fusion, Tetravalent after Fc dimerization; also called tandem CD80_180/CD80_415) VIHVTKEVKGWATLSCGHNVSVEELAQYRIYWQKEKKMVLTMMSGDLNIWPEYKNRTIFDITNNLSIVILALRPSDEGTYECVVLKYEKDAFKREHLAEVTLSVKADGGGGSGGGGSGGGGSVIHVTKEVKGWATLSCGYNVSVEELAQYRIYWQKEKKMVLTMMSGDLNIWPEYKNRTIFDITNNLSIVILALRPSDEGTYECVVLKYEKDAFKREHLAEVTLSVKADGSGGGGS[omitted - human IgG4 Fc with S228P (EU numbers)]									5.18 fold	11600 RLU	12800 RLU	12600 RLU	11800 RLU	209000 MFI	205000 MFI	332000 MFI	0.4 fold	1530 MFI	3080 MFI	3420 MFI	Anti-Human Fc (MFI) at 100 nM (human CD28 on cells [5]): 3870 MFI; fold change vs WT CD80 @20 nM (human CD28 on cells [5]): 19 fold
CD80-CD80-Fc_342 (Fc fusion, also called tandem CD80_197) VIHVTKEVKEYATLSCGHNVSVEELAQTRIYWQKDKKMVLTMMSGDMNIWPEYKNRTIFDITNNLSIVILALRPSDEGTYECVVLKQEKDAFKREHLAEVRLSVKADGGGGSGGGGSGGGGSVIHVTKEVKEYATLSCGYNVSVEELAQTRIYWQKDKKMVLTMMSGDMNIWPEYKNRTIFDITNNLSIVILALRPSDEGTYECVVLKQEKDAFKREHLAEVRLSVKADGSGGGGS[omitted - human IgG4 Fc with S228P (EU numbers)]									6.19 fold	11800 RLU	14600 RLU	15100 RLU	16100 RLU	163000 MFI	217000 MFI	353000 MFI	0.43 fold	611 MFI	1650 MFI	2970 MFI	Anti-Human Fc (MFI) at 100 nM [4]: 358000 MFI; Anti-Human Fc (MFI) at 100 nM (human CD28 on cells [5]): 3690 MFI; fold change vs WT CD80 @20 nM (human CD28 on cells [5]): 16.5 fold

Source: US20250243260A1 (ALPINE IMMUNE SCIENCES, published 2025)
